Reference: PubChem BioAssay AID1347165 (National Center for Advancing Translational Sciences (NCATS), 2019)
Values joined by “and” are separate entries in the source; they are usually repeats but may differ in a detail not shown here. Equal values may be shown once. Among all 220,000 compounds or so, about 5,700 (2.6%) were called active. The shares of active, inactive and inconclusive entries below differ from those in the screen. Calls follow the shape of the dose curve; as a rule, active = well fitted inhibition curve with a large enough effect; inconclusive = small, poorly fitted or top-dose-only effect; inactive = no such curve, though single readings can be large or run the other way. A potency beside an inconclusive call is a rough fit, not a confirmed value.

target: Lysine-specific demethylase 5B (Homo sapiens) (UniProt Q9UGL1); test: Primary screen for KDM5B Histone Demethylases FDH-coupled qHTS; conditions: FDH-coupled NADH fluorescence (FDH is formaldehyde dehydrogenase); activity change, negative = inhibition: at 57.7 µM (top of the series) unless noted; also: nearly all actives have a fitted effect of over 70% in size; as to activity change, negative = inhibition: 0% is about no effect
Sequence of UniProt Q9UGL1 (Q9UGL1 whole entry, looked up): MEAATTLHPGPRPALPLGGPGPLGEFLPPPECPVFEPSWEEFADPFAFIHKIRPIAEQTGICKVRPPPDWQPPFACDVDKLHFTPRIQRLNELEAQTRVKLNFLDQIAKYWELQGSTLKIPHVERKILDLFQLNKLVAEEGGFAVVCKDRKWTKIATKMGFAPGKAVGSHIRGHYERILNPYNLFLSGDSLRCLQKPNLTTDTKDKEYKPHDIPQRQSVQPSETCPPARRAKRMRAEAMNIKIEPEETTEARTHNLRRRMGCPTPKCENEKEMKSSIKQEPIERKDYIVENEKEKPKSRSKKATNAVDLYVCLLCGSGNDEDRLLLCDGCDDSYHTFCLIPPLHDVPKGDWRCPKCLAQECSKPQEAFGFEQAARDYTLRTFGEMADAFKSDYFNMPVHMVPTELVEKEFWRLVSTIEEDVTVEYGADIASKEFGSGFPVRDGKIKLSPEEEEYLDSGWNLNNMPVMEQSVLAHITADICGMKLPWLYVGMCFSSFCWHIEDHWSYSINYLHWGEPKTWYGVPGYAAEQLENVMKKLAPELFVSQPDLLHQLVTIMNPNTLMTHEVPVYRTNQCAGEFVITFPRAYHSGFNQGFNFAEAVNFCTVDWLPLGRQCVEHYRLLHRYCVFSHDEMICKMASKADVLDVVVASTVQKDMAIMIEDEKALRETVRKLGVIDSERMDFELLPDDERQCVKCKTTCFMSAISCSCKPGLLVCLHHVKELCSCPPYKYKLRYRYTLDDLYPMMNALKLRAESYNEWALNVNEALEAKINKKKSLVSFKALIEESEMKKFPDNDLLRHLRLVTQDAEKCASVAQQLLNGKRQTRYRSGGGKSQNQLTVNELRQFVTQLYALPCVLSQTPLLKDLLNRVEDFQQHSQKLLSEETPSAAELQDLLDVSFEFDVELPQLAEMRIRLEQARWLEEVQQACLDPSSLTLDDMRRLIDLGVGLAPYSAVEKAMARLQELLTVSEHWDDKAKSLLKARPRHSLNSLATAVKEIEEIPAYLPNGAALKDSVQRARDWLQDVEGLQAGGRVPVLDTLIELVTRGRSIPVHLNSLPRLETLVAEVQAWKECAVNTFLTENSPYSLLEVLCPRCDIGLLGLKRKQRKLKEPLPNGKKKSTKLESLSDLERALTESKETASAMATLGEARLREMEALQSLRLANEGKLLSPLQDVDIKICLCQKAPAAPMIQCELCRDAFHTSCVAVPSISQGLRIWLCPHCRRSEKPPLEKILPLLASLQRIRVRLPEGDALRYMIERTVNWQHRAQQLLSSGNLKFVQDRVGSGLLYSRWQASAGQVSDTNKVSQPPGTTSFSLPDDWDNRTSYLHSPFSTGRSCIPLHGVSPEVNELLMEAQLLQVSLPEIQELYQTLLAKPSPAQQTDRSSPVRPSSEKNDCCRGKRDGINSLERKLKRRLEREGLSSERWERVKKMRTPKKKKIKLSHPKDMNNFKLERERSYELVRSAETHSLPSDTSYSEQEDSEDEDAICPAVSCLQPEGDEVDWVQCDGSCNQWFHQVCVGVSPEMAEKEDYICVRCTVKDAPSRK
Procedure, shortened: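 Compound dilutions met 200 nM (final) KDM5BΔAP for 10 min at room temperature before substrate addition. The substrate mix held 12.5 µM H3K4me3 with cofactors 25 µM α-ketoglutarate and 50 µM Fe²⁺. NADH signal gain over 30 min defined activity.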
Potency is read from the fitted curve at half-maximal effect; tags tell the direction and shape of the fitted curve.

Compound | activity change, negative = inhibition | Potency
COc1ccc(C)cc1CN(C)C(=O)Cc1c[nH]c2ccccc12 | inactive: 7.75% | –
COc1cccc(-c2cc(-c3ccccc3OC)nc3c(C)noc23)c1 | – | inconclusive: 39.8 µM [inhibitor, partial curve, poor fit]
CC1CCN(CC(=O)N2CCCc3c2c(=O)oc2ccc(OCc4ccccc4)cc32)CC1 | inconclusive: -30.8% [inhibitor] | –
CCn1cc(S(=O)(=O)N2CCC3(CC2)CC(N2CCOCC2)CCO3)cn1 (stereo not given) | inactive: 6.11% | –
COc1ccc(-c2cc3c(=O)n(CC(=O)Nc4ccccc4C(F)(F)F)ccn3n2)cc1OC | – | inconclusive: 5.62 µM [inhibitor, partial curve, poor fit]
COc1ccc(-c2[nH]nc3ncc(-c4ccccc4OC)nc23)c(C)c1 | – | inconclusive: 12.6 µM [inhibitor, partial curve]
N#Cc1c(OCC(=O)N2CCCC2)nc(-c2ccco2)c2c1CCC2 | – | inconclusive: 22.4 µM [inhibitor, partial curve, poor fit]
CCc1nc2ccccc2nc1N1CCN(S(=O)(=O)c2ccccc2)CC1 | – | inconclusive: 28.2 µM [inhibitor, partial curve, poor fit]
O=C(NC1CCN(c2cc(-c3ccccc3)[nH]n2)C1)c1ccc(F)c(Cl)c1 (stereo not given) | – | inconclusive: 25.1 µM [inhibitor, partial curve, poor fit]
COc1cccc(-c2cn3c(n2)N(C(=O)C2CCCO2)CCC3)c1 (stereo not given) | – | inconclusive: 22.4 µM [inhibitor, partial curve]
CCOc1cccc2sc(N(Cc3cccnc3)C(=O)c3ccco3)nc12 | – | inconclusive: 15.8 µM [inhibitor, partial curve, poor fit]
COc1nccnc1NC1CCN(C(=O)c2cnccn2)CC1 | – | inconclusive: 35.5 µM [inhibitor, partial curve, poor fit]
O=c1cc(N2CCOCC2)oc2c(-c3cccc(F)c3)nccc12 | – | active: 39.8 µM
Cc1ccc(Sc2ccc(N3CCCC(C(=O)Nc4ccc(Cl)cc4)C3)nn2)cc1 (stereo not given) | – | inconclusive: 17.8 µM [inhibitor, partial curve, poor fit]
Cc1cc(CN2CCC([C@@H]3CNC[C@H]3CO)CC2)n(C)n1 | – | inconclusive: 12.6 µM [inhibitor, partial curve]
COc1ccc(CC(=O)NCc2nnc3ccccn23)cc1OC | inactive: -13.6% | –
CCn1c(=O)c2ccnn2c2ccc(C(=O)O)cc21 | – | active: 22.4 µM
Cc1ccc(NC(=O)Cn2ccn3nc(-c4ccccc4)c(CO)c3c2=O)cc1Cl | – | inconclusive: 17.8 µM [inhibitor, single point]
CC(=O)N1CCc2nc(-c3ccccc3)nc(-c3ccc(Cl)cc3)c2C1 | inactive: 0.444% | –
COc1ccc(CCNC(=O)c2cnc3sc(N4CCCCCC4)nn3c2=O)cc1OC | – | inconclusive: 2.82 µM [inhibitor, partial curve, poor fit]
Oc1ccc(-c2csc(Nc3cccc(O)c3)n2)cc1 | – | inconclusive: 31.6 µM [inhibitor, partial curve, poor fit]
CCOc1ccccc1C(=O)NC1CCN(c2cc(-c3ccccc3)[nH]n2)C1 (stereo not given) | – | inconclusive: 22.4 µM [inhibitor, partial curve, poor fit]

Compound | activity change, negative = inhibition | Potency
O=c1c2cc(-c3cccs3)nn2ccn1CC(O)c1ccc(F)cc1 (stereo not given) | – | active: 15.8 µM
O=C(Cc1ccc(Cl)cc1)N1CCC2(CC1)CN(C1CCC1)CC2CO (stereo not given) | – | inconclusive: 14.1 µM [inhibitor, partial curve]
FC(F)(F)c1ccc(-c2noc([C@@H]3Cc4nc[nH]c4CN3Cc3cc4ccccc4o3)n2)cc1 | – | active: 25.1 µM
Cc1ccc(C(=O)N2CCC(Oc3ncccc3C(=O)N3CCCCC3)C2)cc1C (stereo not given) | – | active: 28.2 µM
COc1ccc(CN2CCOc3nc(-c4cc(F)cc(OC)c4)ncc3C2=O)cc1 | – | inconclusive: 12.6 µM [inhibitor, partial curve]
CC(=O)N1CCN(C2CCNCC2)C(=O)C1 | – | inconclusive: 100 µM [inhibitor, partial curve]
COc1ccc(C(=O)CC(=O)C(=O)Nc2ccc(C)cc2Cl)cc1 | – | inconclusive: 20 µM [inhibitor, partial curve, poor fit]
Cc1cc(C)c2nc(-c3cccnc3)cc(C(=O)O)c2c1 | – | inconclusive: 28.2 µM [inhibitor, partial curve, poor fit] and inconclusive: 2 µM [inhibitor, full curve, poor fit]
O=C(CCc1ccccc1)N1CCC(N2CC3CC(C2)[C@H]2CCCC(=O)N2C3)CC1 (stereo not given in full) | – | inconclusive: 15.8 µM [inhibitor, partial curve, poor fit]
COCCOc1ccc2c(C)cc(=O)oc2c1 | – | inconclusive: 25.1 µM [inhibitor, partial curve, poor fit]
COc1cc(Nc2nc(SCc3ccccc3F)nc3ccccc23)cc(OC)c1 | – | inconclusive: 35.5 µM [inhibitor, partial curve, poor fit]
CCOc1ccc(/C=C/C(=O)c2ccc(Br)cc2)cc1OC | inactive: -25.8% | –
COc1ccc(C)cc1NC(=O)C1(CCO)CC12CCOCC2 (stereo not given) | inactive: 10.4% | –
O=S(=O)(NCCc1ncc2ccccn12)c1ccccc1 | – | inconclusive: 15.8 µM [inhibitor, partial curve, poor fit]
Cn1cnc2c1c(=O)n(CC(=O)OCCOc1ccccc1)c(=O)n2C | inactive: 24.3% | –
Cc1cc(-c2cc3c(nc2-c2ccccc2)nc(C(=O)NC2CCN(C)CC2)n3C)ccn1 | – | active: 31.6 µM
CCOc1ccc(C(=O)NCCc2sc(-c3ccc(C)cc3)nc2C)cc1 | – | inconclusive: 35.5 µM [inhibitor, partial curve, poor fit]
C=C(C)Cn1c(NCCCOCC)nc2c1c(=O)n(C)c(=O)n2C | inactive: -14.3% | –
CCN(C(=O)Cc1nc(-c2cccs2)oc1C)c1cccc(Br)c1 | – | inconclusive: 28.2 µM [inhibitor, partial curve, poor fit]
CCCCn1nnc(NC(=O)COc2ccc(CC)cc2)n1 | inactive: 1.06% | –
CCOC(=O)C1(Cc2ccccc2C)CCCN(C(=O)c2csc(C)n2)C1 (stereo not given) | – | inconclusive: 7.08 µM [inhibitor, single point]
CC(=O)N1CC[n+]2c(-c3ccc([N+](=O)[O-])cc3)csc21 | – | inconclusive: 17.8 µM [inhibitor, partial curve, poor fit]

Compound | activity change, negative = inhibition | Potency
O=C(O)C/C(=C/c1ccc(-c2ccccc2)cc1)c1nc2ccccc2s1 | – | inconclusive: 7.94 µM [inhibitor, full curve, poor fit]
O=C(Nc1cccc(C(F)(F)F)c1)C1CCCN(S(=O)(=O)c2cccc3nsnc23)C1 (stereo not given) | – | inconclusive: 22.4 µM [inhibitor, single point]
COc1ccc(C(=O)NC2CCCc3c2[nH]c2c(Cl)cccc32)cc1OC (stereo not given) | – | inconclusive: 11.2 µM [inhibitor, partial curve]
C1C2CC3CC1CC(C2)C3NC12CC3CC(CC(C3)C1)C2 (stereo not given) | inactive: -7.2% | –
COc1cccc(Nc2ccc3c(n2)C(C)(C(=O)NCC2CC2)CN(C)C3)c1 (stereo not given) | – | active: 35.5 µM
COc1ccc2cc(C(=O)/C=C/c3cccs3)ccc2c1 | – | inconclusive: 39.8 µM [inhibitor, single point]
Cn1c(N)nc2nc(CCc3ccccc3)c(=O)[nH]c2c1=O | – | inconclusive: 15.8 µM [inhibitor, partial curve, poor fit]
Oc1ccc2[nH]cc(CCNC(c3ccccc3)(c3ccccc3)c3ccccc3)c2c1 | – | inconclusive: 12.6 µM [inhibitor, partial curve, poor fit]
O=C1NCCCCCCN(Cc2ccncc2)[C@@H]2CN(S(=O)(=O)c3cccc(F)c3)CC[C@@H]12 | – | inconclusive: 25.1 µM [inhibitor, partial curve, poor fit]
C/C(=N\NC(=O)c1cccs1)c1c(O)cc(C)oc1=O | – | inconclusive: 28.2 µM [inhibitor, partial curve, poor fit]
Cc1ccccc1CN1Cc2nc(NCc3cccc(F)c3)ccc2OCC1=O | – | inconclusive: 35.5 µM [inhibitor, partial curve, poor fit]
COc1cccc(NC(=O)c2sc(-c3ccco3)nc2-c2ccccc2)c1 | – | inconclusive: 39.8 µM [inhibitor, partial curve, poor fit]
FC(F)(F)c1cccc(-c2noc(-c3ccc(NCCN4CCOCC4)nc3)n2)c1 | – | inconclusive: 25.1 µM [inhibitor, single point]
CCCn1c(=N)c(C(=O)NC2CCCC2)cc2c(=O)n3cc(C)ccc3nc21 | – | inconclusive: 39.8 µM [inhibitor, single point]
Brc1ccoc1-c1nc(-c2ccccc2)no1 | inactive: 26.3% | –
CN(Cc1ccc(F)cc1)C(=O)NC1CCCC(C(F)(F)F)C1 (stereo not given) | inactive: 2.99% | –
COC(=O)c1cc(-c2ccccc2OC)nc2ccccc12 | – | inconclusive: 25.1 µM [inhibitor, single point]
COc1cccc(CN2CCN(Cc3cc4ccccc4[nH]3)CC2CCO)c1 (stereo not given) | – | inconclusive: 31.6 µM [inhibitor, partial curve, poor fit]
CCC(C)(C)NC(=O)c1cc2cc(Br)ccc2oc1=O | inactive: 12.3% | –
O=C1CO[C@H]2CCN(Cc3ccc4c(c3)CCO4)CC[C@@H]2N1c1ccccc1 | – | inconclusive: 14.1 µM [inhibitor, partial curve]
Cc1cc2c(cc1S(=O)(=O)N1CCC(C(=O)N3CCc4ccccc43)CC1)OC(C)C(=O)N2 (stereo not given) | inactive: 15.4% | –
